The values below come from publication PMC5953544.

Amino acid sequences for entries named in this document (tags omitted).
UniProt Q9WVB2: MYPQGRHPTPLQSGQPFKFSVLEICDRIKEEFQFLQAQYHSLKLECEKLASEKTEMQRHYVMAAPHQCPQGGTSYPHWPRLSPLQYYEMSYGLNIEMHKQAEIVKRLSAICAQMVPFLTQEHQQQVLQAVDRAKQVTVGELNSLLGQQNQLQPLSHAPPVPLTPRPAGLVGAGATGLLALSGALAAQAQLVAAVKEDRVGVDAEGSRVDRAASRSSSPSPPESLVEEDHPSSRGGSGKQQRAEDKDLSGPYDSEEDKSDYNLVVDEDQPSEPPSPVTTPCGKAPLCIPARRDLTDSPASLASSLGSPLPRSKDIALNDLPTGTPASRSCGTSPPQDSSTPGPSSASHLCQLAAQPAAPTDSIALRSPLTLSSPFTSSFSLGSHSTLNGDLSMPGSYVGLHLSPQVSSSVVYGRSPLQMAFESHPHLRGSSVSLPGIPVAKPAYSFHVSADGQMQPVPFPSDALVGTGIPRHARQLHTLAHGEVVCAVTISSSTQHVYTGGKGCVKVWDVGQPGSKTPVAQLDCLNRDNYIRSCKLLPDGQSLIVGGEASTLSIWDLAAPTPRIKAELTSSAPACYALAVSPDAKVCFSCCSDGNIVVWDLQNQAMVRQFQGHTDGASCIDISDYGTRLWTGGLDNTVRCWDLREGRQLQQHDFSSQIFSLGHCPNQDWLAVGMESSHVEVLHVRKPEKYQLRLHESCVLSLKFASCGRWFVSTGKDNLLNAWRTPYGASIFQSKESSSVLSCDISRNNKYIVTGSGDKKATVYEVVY
UniProt Q62440: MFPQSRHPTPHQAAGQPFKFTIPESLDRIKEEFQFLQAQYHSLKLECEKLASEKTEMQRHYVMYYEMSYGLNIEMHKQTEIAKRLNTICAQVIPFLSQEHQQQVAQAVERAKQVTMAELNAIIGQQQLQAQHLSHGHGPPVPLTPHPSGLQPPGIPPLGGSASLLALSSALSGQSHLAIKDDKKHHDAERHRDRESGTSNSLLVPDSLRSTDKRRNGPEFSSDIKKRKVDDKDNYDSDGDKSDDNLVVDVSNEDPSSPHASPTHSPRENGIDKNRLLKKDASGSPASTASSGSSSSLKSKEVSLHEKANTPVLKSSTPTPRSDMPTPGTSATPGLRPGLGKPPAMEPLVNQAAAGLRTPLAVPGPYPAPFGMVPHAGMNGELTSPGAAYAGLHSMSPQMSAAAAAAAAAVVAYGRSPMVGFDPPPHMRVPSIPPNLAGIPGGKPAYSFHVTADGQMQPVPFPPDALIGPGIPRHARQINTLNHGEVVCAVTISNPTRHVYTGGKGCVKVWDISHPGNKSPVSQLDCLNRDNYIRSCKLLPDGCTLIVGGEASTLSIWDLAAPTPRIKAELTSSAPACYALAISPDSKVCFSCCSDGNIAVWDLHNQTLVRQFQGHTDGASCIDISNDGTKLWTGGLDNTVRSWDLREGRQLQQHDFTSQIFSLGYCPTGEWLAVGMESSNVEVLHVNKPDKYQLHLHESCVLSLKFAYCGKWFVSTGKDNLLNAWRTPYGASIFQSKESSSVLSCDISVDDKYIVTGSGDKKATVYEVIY

Assay [1] concerns the target T1, FLAG-Tbx6_(1~124aa) (mouse) (UniProt P70327).
T1 sequence: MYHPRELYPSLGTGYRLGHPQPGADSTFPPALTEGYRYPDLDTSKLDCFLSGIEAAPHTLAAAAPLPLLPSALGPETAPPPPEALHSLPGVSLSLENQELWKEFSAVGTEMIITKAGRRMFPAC
The experiment in a line: co-IP; HEK293T cells co-transfected with a FLAG-tagged and a Myc-tagged construct; lysis in 50 mM Tris-HCl pH 7.4, 150 mM NaCl, 1 mM EDTA, 0.5% NP-40, 1 mM DTT; anti-FLAG M2 affinity gel at 4°C; blots with anti-FLAG and anti-Myc.

In assay [2] the target is T2, FLAG-Tbx6_(1~152aa) (mouse) (UniProt P70327).
T2 sequence: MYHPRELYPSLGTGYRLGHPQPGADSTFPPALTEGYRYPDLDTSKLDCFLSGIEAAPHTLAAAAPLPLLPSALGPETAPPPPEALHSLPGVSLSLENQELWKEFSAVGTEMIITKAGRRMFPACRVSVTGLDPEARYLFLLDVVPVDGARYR
Described as above.

A further assay concerns the target T3, FLAG-Tbx6 (mouse) (UniProt P70327).
T3 sequence: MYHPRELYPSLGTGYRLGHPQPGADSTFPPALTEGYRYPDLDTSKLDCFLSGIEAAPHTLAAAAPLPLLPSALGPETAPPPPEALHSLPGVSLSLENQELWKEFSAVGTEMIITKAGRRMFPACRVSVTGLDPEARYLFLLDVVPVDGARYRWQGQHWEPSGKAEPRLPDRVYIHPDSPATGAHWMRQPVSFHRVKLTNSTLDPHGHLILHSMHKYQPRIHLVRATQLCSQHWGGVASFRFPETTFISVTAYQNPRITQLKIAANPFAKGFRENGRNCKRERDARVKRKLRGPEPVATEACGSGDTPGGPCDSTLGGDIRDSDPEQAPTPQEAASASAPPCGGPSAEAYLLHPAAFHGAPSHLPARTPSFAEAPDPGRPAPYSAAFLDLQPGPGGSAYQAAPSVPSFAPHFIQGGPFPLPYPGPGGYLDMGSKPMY
The assay is described as above.

The target of the next assay is FLAG-TLE2 (UniProt Q9WVB2). Described as above.
The target of another assay is FLAG-TLE1 (mouse) (UniProt Q62440). The description is as above.
A further assay deals with T4, GST-Tbx6 (mouse) (UniProt P70327).
T4 sequence: T3 sequence
As to the kind of experiment: pull-down; supernatant of sonicated E. coli with GST or GST-Tbx6 (or mutant) mixed with purified His-Ripply2 and glutathione-sepharose 4FF, 2 hr; 25 mM HEPES-KOH pH 7.4, 150 mM NaCl, 0.1% NP-40, 1 mM DTT, 1 mM EDTA; blot with anti-Ripply2 (and anti-His); only the binder purified.

A further assay has as its target T5, FLAG-Ripply2 (mouse) (UniProt Q2WG76).
T5 sequence: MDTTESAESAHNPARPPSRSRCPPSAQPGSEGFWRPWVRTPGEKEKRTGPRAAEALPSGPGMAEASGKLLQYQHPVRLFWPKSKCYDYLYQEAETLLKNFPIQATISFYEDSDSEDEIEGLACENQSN
As to the kind of experiment: co-IP; lysates of Tbx6-venus knock-in mouse ES cells with Dox-induced FLAG-Ripply2 or its mutants, PSM-fated with CHIR99021 (for the proteasome blot also without differentiation induction); anti-FLAG beads; blots with anti-GFP, anti-FLAG, anti-proteasome 20S antibodies.

These are yes or no findings as the source states them, for the method shown. Binding seen in cells or lysates may run through a third protein. Some results given as binding are weak or reduced against the parent protein; the word gives no strength. Tags and fused reporters may be left off the sequences shown.

B1: Myc-Ripply2 (protein, UniProt Q2WG76 1-128)
chain: T5 sequence
With B1, the binding result in assay [1] is given as “no binding”; in assay [2], “binds”; with FLAG-Tbx6 (mouse) it was “binds”; with FLAG-TLE2, “binds”; with FLAG-TLE1 (mouse) it was “binds”.

B2: His-Ripply2 (protein, UniProt Q2WG76 1-128)
chain: T5 sequence
On to B2, for which the binding entry in the assay with GST-Tbx6 (mouse) is on record as “binds”.

B3: Tbx6-venus (protein, UniProt P70327 1-436)
chain: T3 sequence
B3: the binding entry in the assay with FLAG-Ripply2 (mouse) is “binds”.
